Experimental data: PubChem BioAssay AID1963576 (National Center for Advancing Translational Sciences (NCATS), 2024)
Screen size: about 46,000 compounds; about 60 (0.1%) were called active. Inconclusive results (about 3%) are left out. The call rests on the fitted dose curve; in most records, active means well fitted inhibition curve with a large enough effect; inconclusive means small, poorly fitted or top-dose-only effect; inactive means no such curve, though single readings can be large or run the other way. This is one part of the list.

Assay: Primary qHTS assay for Inhibitors of ovarian cancer metastasis using an organotypic tumor microenvironment (TME) model. Further: nearly all actives have a fitted effect of over 65% in size.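 On activity change, negative = inhibition: plate controls were DMSO wells for no effect and tomatine positive control wells for full effect.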
Settings: SKOV3ip1-GFP adhesion/invasion on 3D omental model, fluorescence; series mostly up to 45.8 µM; activity change, negative = inhibition: at the top concentration
In short: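 A 3D layer of primary human omental fibroblasts, mesothelial cells, fibronectin and collagen I, grown 48 hr, received SKOV3ip1-GFP cells in serum-free medium plus compounds at 0.36-46 umol/L. After 2 hr RT and 16 hr 37 C, fixed adherent GFP cells were counted; normalized to DMSO and tomatine.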

Activity change, negative = inhibition, inactive:
Cc1ccc(S(=O)(=O)N2CCCC(c3nc4c(nnn4Cc4ccc(OC(F)(F)F)cc4)c(=O)[nH]3)C2)cc1 (stereo not given) 6.17%
CC(C)C[C@H](NC(=O)[C@H](CCc1ccccc1)NC(=O)CN1CCOCC1)C(=O)N[C@@H](Cc1ccccc1)C(=O)N[C@@H](CC(C)C)C(=O)[C@@]1(C)CO1 -4.68%
CSc1cccc(N2C(=O)N(Cc3ccc([N+](=O)[O-])cc3)c3ccccc3S2(=O)=O)c1 14.1%
O=C1CC(c2nc3ccccc3n2Cc2c(F)cccc2Cl)CN1c1cccc(C(F)(F)F)c1 (stereo not given) -19%
CCOC(=O)N1CCc2c(sc3c2c(=O)n(Cc2ccccc2)c(=O)n3Cc2c(F)cccc2Cl)C1 8.16%
CN(Cc1ccccc1)C(=O)c1cc2c(=O)n(C)c3ccccc3c2s1 -15.8%
COc1ccc(-n2c(C)c([N+](=O)[O-])c3ccc(O)cc32)cc1 -14%
CC(=O)Cn1nnc2sc(-c3ccccc3)cc2c1=O 8.92%
COCCNC(=O)c1cc2n(n1)CCCN(Cc1ccc(C)cc1)C2=O 8.17%
COc1ccc(CC(=O)Nc2c(C(=O)Nc3ccccc3F)oc3ccccc23)cc1 -6.85%
COc1ccc(NC(=O)CC2C(=O)N(c3ccc(C)cc3)C(=O)N2CCc2ccccc2)cc1 (stereo not given) 8.46%
Cc1ccccc1NC(=O)c1sc2nc(-c3ccncc3)ccc2c1N 3.16%
Cc1cc2ccccc2n1-c1ccc(C(=O)N2CCCCC2)s1 -9.92%
COCCCNC(=O)CCCn1c(=O)c2cccn2c2cccnc21 -4.69%
CCCN(CCC)CCCNC(=O)Cn1ncc2c3ccccc3n(Cc3ccc(F)cc3)c2c1=O 0.697%
CCCCOc1cccc(C(=O)Nc2cc3nn(-c4ccc(F)cc4)nc3cc2C)c1 4.04%
CCOC(=O)c1ccc(N2C(=O)c3n[nH]c(-c4cccs4)c3C2c2ccc(C)cc2)cc1 (stereo not given) -0.153%
COc1cc(OC)cc(C(=O)Nc2ccc(S(=O)(=O)Nc3cc(C)nc(C)n3)cc2)c1 -22.6%
CCn1cc(S(=O)(=O)c2ccccc2)c(=O)c2cc(C)ccc21 -1.58%
CC(C)(CC(=O)OCC(=O)Nc1ccc(F)c(Cl)c1)CC1=NS(=O)(=O)c2ccccc2N1 7.77%
CCCCn1c(COc2cccc(OC)c2)nc2ccccc21 0.167%
COc1ccc(CCN2CC(C(=O)NCCc3ccc(C)cc3)CC2=O)cc1OC (stereo not given) 0.634%
COc1ccc(Cl)cc1NC(=O)Cn1cc(C(=O)c2ccncc2)c(=O)c2cc(C)ccc21 6.58%
CC(C)NC(=O)c1ccc(-n2c(-c3ccccc3)cc3c2CCCCC3)cc1 -1.66%
Cc1ccccc1C(=O)Nc1cccc(C(=O)OCc2cc(=O)n3c4c(sc3n2)CCCC4)c1 3.12%
O=C(CSc1nc2ccccc2n1Cc1ccccc1F)NCc1ccccc1 4.78%
Cn1nnc2c(N3CCN(c4ccccc4F)CC3)ncnc21 9.82%
CCOc1ccc(-c2cc(OC(=O)c3ccccc3)c3c(C)oc(C)c3c(=O)c2)cc1 4.53%
CCC(Sc1nc2cc(OC)c(OC)cc2c(=O)n1CCc1ccc(Cl)cc1)C(=O)NCCOC (stereo not given) 4.45%
Cc1cc(C)cc(NC(=O)CCc2c(C)nn(-c3ccc(N4CCCC4)nn3)c2C)c1 0.239%
COc1cc2c(cc1OC)C(COc1ccc(F)cc1)N(C(=O)Cc1ccc(F)cc1)CC2 (stereo not given) -4.42%
Cc1ccc2oc3c(c(=O)c2c1)C(c1ccccc1F)N(CCCN1CCOCC1)C3=O (stereo not given) 9.19%
COc1ccc(N(CC(=O)NCCc2ccccc2)S(=O)(=O)c2ccccc2)c(OC)c1 9.09%
CCCCNC(=O)CSc1nc2cc3c(cc2c(=O)n1CCCCCC(=O)NCc1ccc2c(c1)OCO2)OCO3 15.1%
Cc1ccc(-n2c(SCC(=O)NCc3ccc(F)cc3)nc3c([nH]c4ccccc43)c2=O)cc1 -0.956%
Cc1ccc(CN(C(=O)COc2cccc([N+](=O)[O-])c2)c2ccccn2)cc1 5.1%
CCOC(=O)C1CCN(c2ncnc3c2nnn3C)CC1 -9.89%
Cc1ccc(Nc2c(-c3ccncc3)nc3ccc(C)cn23)cc1 -9.33%
CCCS(=O)(=O)c1ncc(Cl)c(C(=O)Nc2scc(-c3ccccc3)c2C(=O)OCC)n1 3.76%
CC(C)c1ccc(CNc2nc(-c3ccco3)nn2S(=O)(=O)c2ccc3ccccc3c2)cc1 -3.01%
O=S(=O)(c1ccccc1)c1nc(-c2ccc(Cl)cc2Cl)oc1N1CCCCCC1 -12.2%
CCC1CCCCN1CC(=O)N1CCCc2c1c(=O)oc1ccc(OCc3ccccc3)cc21 (stereo not given) -21.6%
COc1ccc(-c2nc(Cn3c(SCc4ccc(C)cc4)nc4cccnc43)c(C)o2)cc1OC -11.2%
COc1cccc2c1cc1c(=O)n(CC(=O)N3CCN(c4cc(Cl)ccc4C)CC3)nc(C)n12 -10.7%
COc1ccc(-c2nnc(SCC(=O)Nc3ccc(Cl)cc3)s2)cc1 -7.36%
CCOC(=O)c1ccc(NC(=O)C2=C(C)Nc3nc(SCc4ccc(Cl)cc4)nn3C2c2ccc(OC)cc2)cc1 (stereo not given) 4.13%

outcome, inactive:
Cc1c(Cl)cccc1Nc1sc(C(=O)c2ccccc2)c(N)c1S(=O)(=O)c1ccccc1
O=C(CC1C(=O)N(c2ccc(F)cc2)C(=O)N1Cc1cccnc1)Nc1ccc(F)cc1 (stereo not given)
Brc1ccc(-c2cc3c(N4CCN(c5ccccc5)CC4)nccn3n2)cc1
COc1cccc(CNC(=O)CCNS(=O)(=O)c2cccc3nsnc23)c1
Cc1nc(C)c(-c2ccc(SCC(=O)Nc3ccccc3F)nn2)s1
CCOC(=O)c1[nH]c2ccccc2c1NC(=O)c1ccc(OC(C)C)cc1
O=C(CSc1nccn1-c1ccc(Cl)cc1)Nc1nc2ccccc2s1
COc1cc(NC(=O)c2cc3c(=O)oc4ccc(C)cc4c3s2)cc(OC)c1OC
Cc1ccc(NC(=O)N(Cc2cn(C)c3ccccc23)C2CCCCC2)cc1C
COc1cc2nc(SCc3cccc(Cl)c3)n3nc(CCn4nc(C)cc4C)nc3c2cc1OC
Cc1cc(C)cc(N2CCn3c2nc2c3c(=O)n(Cc3ccc(Cl)cc3)c(=O)n2C)c1
COc1ccc(CNC(=O)Cn2nnc(-c3ccc(S(C)(=O)=O)cc3)n2)cc1
O=C(CCCn1c(=O)c2cccn2c2cccnc21)NCc1ccc(F)cc1
COc1ccc(C(=O)CC2(O)C(=O)N(Cc3ccccc3Cl)c3ccccc32)cc1 (stereo not given)
